Results from PubChem BioAssay AID1347417 (National Center for Advancing Translational Sciences (NCATS), 2020).
Hit rate of the full screen: of about 120,000 compounds, about 5,300 (4.4%) were called active. The inconclusive results got no clear call from the source; some entries with a clear call stand among them for comparison. Calls come from the whole dose curve; as a rule, active = well fitted inhibition curve with a large enough effect; inconclusive = small, poorly fitted or top-dose-only effect; inactive = no such curve, though single readings can be large or run the other way. Where the call is inconclusive, the potency comes from a doubtful curve fit.

Experiment: qHTS Primary assay for Inhibitors of Plasmodium falciparum Dd2 growth in vitro; note: nearly all actives have a fitted effect of over 65% in size;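 for activity, negative = inhibition: plate controls were DMSO vehicle for no effect and reference drug for full effect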
Conditions: P. falciparum Dd2 growth, SYBR Green, 72 h; activity, negative = inhibition: at 28.9 µM (top of the series) unless noted; series mostly up to 28.9 µM
Summary of the method: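 Infected erythrocytes (Dd2, 0.3% parasitemia, 2.5% hematocrit final) are added to compound in RPMI-1640/Albumax II medium, grown 72 h at 37C in low oxygen, then lysed with saponin/Triton-X containing SYBR Green and read by fluorescence.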
Potency is the fitted concentration of half-maximal effect; tags give direction and shape of the fitted curve.

SMILES	outcome	Potency	activity, negative = inhibition
O=S(=O)(c1ccccc1)N1CCCC(Cn2c(C3CC3)nc3cccnc32)C1 (stereo not drawn)	inactive		
O=C(c1scc2c1OCCO2)N1CCC2(CC1)c1ccccc1CC2O (stereo not drawn)		inconclusive: 11.2 µM [inhibitor, single point]	
COc1cccc(C(=O)NCc2nnc3c(-c4nc(C)no4)cccn23)c1			inactive: -29.8%
CCOC(=O)C1CCCN(C(=O)CC(c2cccc([N+](=O)[O-])c2)c2c[nH]c3c(CC)cccc23)C1 (stereo not drawn)		active: 12.6 µM	
COc1ccc(OC)c(NC(=O)c2ccc3c(c2)N(S(=O)(=O)c2ccccc2)CC3)c1		inconclusive: 1.78 µM [inhibitor, full curve, poor fit]	
COc1ccc(-c2cc(C[C@@H]3CC[C@H](O)[C@@H](CNCc4cccc(OC)c4)O3)no2)cc1		inconclusive: 0.794 µM [inhibitor, full curve, poor fit]	
Cc1c(Cl)cccc1NC(=O)Cn1ccn2nc(-c3ccccc3)c(CO)c2c1=O			inactive: 1.37%
COCCNC(=O)CCCn1c(SCc2ccccc2Cl)nc2c(sc3ccccc32)c1=O		inconclusive: 5.01 µM [inhibitor, partial curve, poor fit]	
COc1ccc(-c2ccccc2NC(=O)C2CCCN(Cc3cccnc3)C2)cc1 (stereo not drawn)		inconclusive: 12.6 µM [inhibitor, single point]	
O=C1NCc2ccccc2CC12CCN(Cc1ccccc1F)C2 (stereo not drawn)		inconclusive: 0.631 µM [inhibitor, full curve, poor fit]	
COC(=O)c1ccc([C@H]2Nc3ccc(S(=O)(=O)Nc4cccc(C)c4)cc3[C@H]3C=CC[C@H]32)cc1		inconclusive: 11.2 µM [inhibitor, partial curve, poor fit]	
Cc1ccc(CCNC(=O)C2CCN(C(=O)c3cc4c(=O)[nH]c(C)cn4n3)CC2)cc1		inconclusive: 0.316 µM [inhibitor, full curve]	
O=C(NC1CCCc2c1[nH]c1ccc(F)cc21)c1ccccn1 (stereo not drawn)		inconclusive: 2.24 µM [inhibitor, partial curve, poor fit]	
C[C@@H](O)[C@H](N)C(=O)N1CCc2onc(-c3cccc4ccccc34)c2C1		inconclusive: 12.6 µM [inhibitor, single point]	
COCc1nnc(NC(=O)C2c3ccccc3C(=O)N(CC(C)C)C23CCCC3)s1 (stereo not drawn)		active: 5.62 µM	
CCCCOc1ccc(CN2C[C@@H]3C(=O)N(C)C(=O)[C@@H]3C2)cc1		inconclusive: 5.01 µM [inhibitor, partial curve]	
CCOCCCn1c(SCC(=O)Nc2ccc(CC)cc2)nc2ccccc2c1=O		inconclusive: 12.6 µM [inhibitor, single point]	
O=C1c2c(nc(CNCC3CC3)n2Cc2ccccc2)NCCN1Cc1ccccc1		inconclusive: 2.24 µM [inhibitor, partial curve, poor fit]	
CC(C)c1ccc(S(=O)(=O)c2nnn3c2nc(NCc2ccc(F)cc2)c2ccccc23)cc1		inconclusive: 5.01 µM [inhibitor, partial curve, poor fit]	

SMILES	outcome	Potency	activity, negative = inhibition
CC1=C[C@@H](CNC(=O)COCC(=O)O)[C@H](C(C)C)C[C@H]1Cc1nc2ccc(C)cc2[nH]1		inconclusive: 11.2 µM [inhibitor, single point]	
Cc1noc(-c2ccc(OC3CN(C(=O)NC4CCCC4)C3)cc2)n1			inactive: 32.1% [at 5.79 µM]
Cc1cccc(C(=O)N2CCC3(CC2)CC(Cc2ccc(F)cc2)CCO3)c1 (stereo not drawn)		inconclusive: 15.8 µM [inhibitor, single point]	
O=C(NC[C@H]1O[C@@H](CC(=O)N2CCc3ccccc32)[C@H](O)[C@@H]1O)C1CC1		inconclusive: 3.98 µM [inhibitor, single point]	
CC(C)c1ccc(NC(=O)C2CCCN2S(=O)(=O)c2ccc3nc(-c4ccccc4)[nH]c3c2)cc1 (stereo not drawn)		inconclusive: 17.8 µM [inhibitor, single point]	
O=S(=O)(c1ccc(-c2csc(=Nc3ccc(F)cc3)n2CCCCCCO)cc1)N1CCCC1		inconclusive: 17.8 µM [inhibitor, single point]	
COc1ccc(C(=O)N2CCCN(S(=O)(=O)c3ccccc3)CCC(=O)NCC2)cc1F			inactive: -18.8%
Cn1c(CN2CCC3(CCNCC3)C2)cc2ccccc21		inconclusive: 8.91 µM [inhibitor, partial curve]	
CCOc1ccc(Nc2nc(C)c(NC(=O)c3cccc(F)c3)c(Nc3ccc(OCC)cc3)n2)cc1		inconclusive: 5.01 µM [inhibitor, partial curve, poor fit]	
COc1cccc(-c2oc3ccc(C)cc3c(=O)c2O)c1		inconclusive: 10 µM [inhibitor, single point]	
COc1cccc([S+](=O)([O-])N2CCc3nc(C)nc(-c4ccc(Cl)cc4)c3C2)c1		inconclusive: 12.6 µM [inhibitor, single point]	
Cc1noc(C)c1S(=O)(=O)N(CC(=O)NCCc1ccc(Cl)cc1)c1ccc(C(C)C)cc1		inconclusive: 17.8 µM [inhibitor, single point]	
CC1(C)CC(=O)C=C(C(=O)N2CCCC(N3CCN(c4ccccc4F)CC3)C2)O1 (stereo not drawn)			inactive: -9.82%
CC(=O)c1ccc(NC(=O)CC2Nc3cc(C)c(C)cc3NC2=O)cc1 (stereo not drawn)		active: 5.01 µM	
C=CCn1cc2c3c(cccc31)[C@H](CC(C)C)N[C@H](C(=O)O)C2		inconclusive: 31.6 µM [inhibitor, single point]	
Fc1ccc(-c2cnc([C@@H]3COCCN3Cc3cccnc3)[nH]2)c(F)c1		inconclusive: 31.6 µM [inhibitor, single point]	
CCCC(c1cccs1)n1cc(-c2cncnc2)nn1 (stereo not drawn)	inactive		
Cc1ccc(Cn2c(CNC(=O)c3ccc(Cl)c([N+](=O)[O-])c3)nc3cccnc32)cc1		inconclusive: 0.0447 µM [inhibitor, full curve, poor fit]	
CCc1ccc(NC(=O)C2CCN(S(=O)(=O)c3cccc(-c4noc(C)n4)c3)CC2)cc1		inconclusive: 17.8 µM [inhibitor, single point]	
